Source: US12338279B2, “Selective and potent inhibitory antibodies of myostatin activation” (SCHOLAR ROCK, INC., priority 2022, dated 2025)

Experiments:
[1] = system: biotinylated human pro-myostatin; assay: Biacore 8k SPR binding affinity, human pro-myostatin
Source text: (§1) The Biacore™ 8 k SPR system was utilized to evaluate the binding affinity of myostatin antibodies to biotinylated human, murine, and cyno pro-myostatin. Biotin CAPture kit and sensor chips (Cytiva) were utilized in these experiments to immobilize the various antigens, followed by flowing a range of concentrations of each of the test antibodies.

[2] = AC-SINS self-interaction (aggregation behavior); format: physicochemical; details: cutoff shift >5 nm in plasmon wavelength
Experimental: The antibodies were tested for aggregation behavior by affinity capture self-interaction nanoparticle spectroscopy (AC-SINS). Gold nanoparticles were coated with polyclonal antibodies that are specific for human monoclonal antibodies and the monoclonal antibodies are captured by the conjugates. The polyvalency of the monoclonal antibody conjugates amplifies the attractive self-interactions, i.e., aggregation between the adsorbed antibodies. This leads to reduced inter-particle separation distances and is detected by a change in color of the gold colloid solution, which was quantified by a change in the wavelength of maximum absorbance (plasmon wavelength). Plasmon wavelength of 530 nm was used as the reported value for unaggregated gold nanoparticles. Antibodies with a tendency to self-aggregate shift the plasmon wavelength toward the red end of the spectrum. A shift of greater than 5 nm (i.e., >5 nm) in plasmon wavelength was used as the cutoff indicative of self-interacting antibodies.

[3] = system: biotinylated murine pro-myostatin; assay: Biacore 8k SPR binding affinity, murine pro-myostatin; design: species or system mouse
Source text: as §1

[4] = system: dexamethasone-induced muscle atrophy in C57BL6 male mice; assay: Dexamethasone-induced muscle atrophy mouse model; format: in vivo; details: for body weight of dexamethasone treated mice: FIG. 6A, FIG. 9A
Source text: To evaluate in vivo efficacy of the novel myostatin-selective inhibitors disclosed herein, the ability of the antibodies to preserve lean muscle mass was examined in a dexamethasone-induced atrophy mouse model. An excess of glucocorticoids directly stimulates myostatin production via interactions with a glucocorticoid response element in the myostatin promoter, thus inducing loss of muscle mass. As shown herein, antibodies of the disclosure prevented glucocorticoid-induced muscle atrophy.
C57BL6 male mice (n=8) at 13-14 weeks of age were given normal drinking water or water containing dexamethasone at a concentration of 2.5 mg/kg (17.5 grams dexamethasone per liter of drinking water) to induce atrophy. […] Body weight was measured daily. Body composition was measured by qNMR to determine lean mass pre-dosing, at day 7, and at day 14. After 14 days of dexamethasone exposure, the animals were terminated, and body weight and gastrocnemius weight were measured. Terminal blood for each animal was also collected.
C57BL6 male mice (n=8) at 13-14 weeks of age were given normal drinking water or water containing dexamethasone at a concentration of 2.5 mg/kg to induce atrophy. Mice were dosed at day 1 and day 7 with vehicle (PBS), IgG control (“hIgG”) or different doses of the test antibodies, as shown in Table 13. Muscle mass at days −1, 6 and 13 was measured using qNMR. At the end of the study (day 14), serum from each animal was collected and changes in body weight, body composition (qNMR), left and right gastrocnemius weight, and left and right quadriceps weight were measured. Statistical analysis was performed by ANOVA (Dunnett's multiple comparison test).
In a third experiment, antibody doses ranging from 0.3 mg/kg to 10 mg/kg were compared for their effectiveness in attenuating dexamethasone-induced atrophy. C57BL6 male mice (n=8) at 13-14 weeks of age were given normal drinking water or water containing dexamethasone at a concentration of 2.5 mg/kg to induce atrophy. Mice were dosed at day 1 and day 7 with vehicle (PBS), human IgG control (“hIgG”) or different doses of the test antibodies, as shown in Table 14 below. qNMR was used to measure muscle mass at days-1, 6 and 13. At day 14 the study ended, serum was collected and changes in body composition (qNMR), left and right gastrocnemius weight, and left and right quadriceps weight were determined. Circulating myostatin was measured in the serum of a terminal bleed taken at day 14. Statistical analysis was performed by ANOVA (Dunnett's multiple comparison test).
In a fourth experiment, antibodies Ab109 and Ab133 were compared to control human IgG and Ab2 in the same protocol as described above.

[5] = system: total myostatin in serum; assay: Circulating total myostatin in serum (acidification ELISA), dexamethasone model; format: in vivo, mouse; details: as compared to apitegromab
Source text: Briefly, serum samples were acidified at low pH (e.g., pH ˜2.5) to dissociate the bound antibody from the immune complex and to convert all myostatin in the sample to the active form of growth factor (i.e., mature myostatin). Samples were then neutralized and assayed for the presence of mature myostatin on ELISA plates coated with anti-mature myostatin antibodies as capture reagents.

[6] = system: human pro-myostatin; assay: SEC-MALS binding stoichiometry
Experimental: A combination of size exclusion chromatography and multi-angle light scattering (SEC-MALS) was used to determine the approximate mass and therefore the oligomeric state of the antibodies and their stoichiometry of binding to human promyostatin. The monoclonal antibody (mAb) or its Fab fragment was mixed with 50 μg of human pro-myostatin at a ratio of 1:1, 2:1 or 3:1 (antibody to antigen) for at least 24 hours at room temperature for immune complexes to form, filtered and injected into an analytical SEC column (Waters HPLC with a Superdex 200 10/300), flowed through a refractive index detector and then a miniDAWN® multi-angle light scattering detector to determine the mass. A full-length human-pro-myostatin with an N-terminal His6 tag (SEQ ID NO: 941) was used to express pro-myostatin in HEK cells. The signal peptide present in the construct is cleaved during biosynthesis. The resulting recombinant human pro myostatin was purified using the His6 tag (SEQ ID NO: 941) and used for the experiment.

[7] = Fab fragment, input ratio Fab:pro-myostatin 2:1
[8] = Fab fragment, input ratio Fab:pro-myostatin 3:1
[9] = full-length mAb, input ratio mAb:pro-myostatin 1:1
[10] = full-length mAb, input ratio mAb:pro-myostatin 3:1

Molecule	Ka [1] [M⁻¹ s⁻¹]	Kd (1/s) [1] [s⁻¹]	aggregation behavior by AC-SINS [2]	Ka [3] [M⁻¹ s⁻¹]	Kd (1/s) [3] [s⁻¹]	body weight of dexamethasone treated mice ([4]; 3 mg/kg/day)	lean mass by qNMR in dexamethasone treated mice ([4]; 3 mg/kg/day, FIG. 6B, FIG. 9B)	gastrocnemius weight in dexamethasone treated mice ([4]; 3 mg/kg/day, FIG. 6C, FIG. 9C)	accumulation of total or latent myostatin in serum samples from dosed subjects [5]	SEC-MALS Result [6, 7] [kDa]	SEC-MALS Result [6, 8] [kDa]	SEC-MALS Result [6, 9]	SEC-MALS Result [6, 10] [kDa]	prevention of muscle atrophy in dexamethasone treated mice ([4]; second experiment, Table 13)
Ab102: anti-pro/latent myostatin antibody; CDRs in Tables 2d-f, variable domains Table 3, chains Table 4 (antibody) heavy: EVQLVESGGGLVQPGGSLRLSCAASGFTFTSYGMSWVRQAPGKGLELVASITGSGGETYYPDSVKGRFTISRDNAKNSLYLQMNSLRAEDTAVYYCARDLLVRFLEWSHYYGMDVWGQGTTVTVSSASTKGPSVFPLAPCSRSTSESTAALGCLVKDYFPEPVTVSWNSGALTSGVHTFPAVLQSSGLYSLSSVVTVPSSSLGTKTYTCNVDHKPSNTKVDKRV[human IgG4 Fc with S228P (EU numbers) left out] light: DIVMTQSPLSLPVTPGEPASISCRSSQSLLHSSGHNFLHWYLQKPGQSPQLLIYETSNRAPGIPDRFSGSGSGTDFTLKISRVEAEDVGVYYCMQATQFPRPFGGGTKVEIKRTVAAPSVFIFPPSDEQLKSGTASVVCLLNNFYPREAKVQWKVDNALQSGNSQESVTEQDSKDSTYSLSSTLTLSKADYEKHKVYACEVTHQGLSSPVTKSFNRGEC	6.49e+06	0.000376	did not display aggregation behavior	6.11e+06	0.0005	maintained the body weight of the dexamethasone treated mice to a greater extent than Ab2	preserved the lean mass of the mice to a greater degree than the 10 mg/kg/day dose of Ab2	highly effective in preserving gastrocnemius weight	reduced accumulation of circulating latent myostatin	–	–	–	–	–
Ab107: anti-pro/latent myostatin antibody; CDRs in Tables 2d-f, variable domains Table 3, chains Table 4 (antibody) heavy: EVQLVESGGGLVQPGGSLRLSCAASGSAFSSYGMSWVRQAPGKGLELVASINSNGGSTYYPDSVKGRFTISRDNAKNSLYLQMNSLRAEDTAVYYCARDQLVRFLEWSHYYGMDVWGQGTTVTVSSASTKGPSVFPLAPCSRSTSESTAALGCLVKDYFPEPVTVSWNSGALTSGVHTFPAVLQSSGLYSLSSVVTVPSSSLGTKTYTCNVDHKPSNTKVDKRV[human IgG4 Fc with S228P (EU numbers) left out] light: DIVMTQSPLSLPVTPGEPASISCRSSQSLLHSSGHNFLHWYLQKPGQSPQLLIYAGSNRPSGVPDRFSGSGSGTDFTLKISRVEAEDVGVYYCAHATQLPHTFGGGTKVEIKRTVAAPSVFIFPPSDEQLKSGTASVVCLLNNFYPREAKVQWKVDNALQSGNSQESVTEQDSKDSTYSLSSTLTLSKADYEKHKVYACEVTHQGLSSPVTKSFNRGEC	5.34e+06	0.000319	did not display aggregation behavior	8.04e+06	0.000455	–	–	–	–	–	–	–	–	–
Ab123: anti-pro/latent myostatin antibody; CDRs in Tables 2d-f, variable domains Table 3, chains Table 4 (antibody) heavy: EVQLVESGGGLVQPGGSLRLSCAASGFTFSKYDMSWVRQAPGKGLELVASISSSGGTRYYPDSVKGRFTISRDNAKNSLYLQMNSLRAEDTAVYYCAKDLWVASPGYGMDVWGQGTTVTVSSASTKGPSVFPLAPCSRSTSESTAALGCLVKDYFPEPVTVSWNSGALTSGVHTFPAVLQSSGLYSLSSVVTVPSSSLGTKTYTCNVDHKPSNTKVDKRV[human IgG4 Fc with S228P (EU numbers) left out] light: DIVMTQSPLSLPVTPGEPASISCRSSQSLLHSSGHNYLHWYLQKPGQSPQLLIYLGSIRAPGVPDRFSGSGSGTDFTLKISRVEAEDVGVYYCMQALLNPPTFGGGTKVEIKRTVAAPSVFIFPPSDEQLKSGTASVVCLLNNFYPREAKVQWKVDNALQSGNSQESVTEQDSKDSTYSLSSTLTLSKADYEKHKVYACEVTHQGLSSPVTKSFNRGEC	1.38e+06	0.000543	–	1.25e+06	0.000772	maintained the body weight of the dexamethasone treated mice to a greater extent than Ab2	–	–	–	141.2	144.5	236.1 kDa	237.5	–
Ab112: anti-pro/latent myostatin antibody; CDRs in Tables 2d-f, variable domains Table 3, chains Table 4 (antibody) heavy: QVQLVQSGAEVKKPGASVKVSCKVSGGTFGIYAIHWVRQAPGKGLEWMGGTIPVFGTAIYAQKFQGRVTMTEDTSTDTAYMELSSLKSEDTAVYYCASLTGIAAAGTHPARGGMDVWGQGTTVTVSSASTKGPSVFPLAPCSRSTSESTAALGCLVKDYFPEPVTVSWNSGALTSGVHTFPAVLQSSGLYSLSSVVTVPSSSLGTKTYTCNVDHKPSNTKVDKRV[human IgG4 Fc with S228P (EU numbers) left out] light: DIQMTQSPSSVSASVGDRVTITCRASPSISSYLAWYQQKPGKAPKLLIYAASRLQSGVPSRFSGSGSGTDFTLTISSLQPEDFANYYCQEYLSFPLTFGGGTKVEIKRTVAAPSVFIFPPSDEQLKSGTASVVCLLNNFYPREAKVQWKVDNALQSGNSQESVTEQDSKDSTYSLSSTLTLSKADYEKHKVYACEVTHQGLSSPVTKSFNRGEC	217000	0.000122	–	251000	0.000188	–	–	–	–	176.9	180.9	2,519 kDa	699.6	less effective in preventing muscle-induced atrophy than Ab109 and Ab127
